Our source for the z-score values is PubChem BioAssay AID488969 (Vanderbilt High Throughput Screening Facility, 2010).

In all, about 110,000 compounds were measured (“z-score”: median about -0.1, highest 2% from about 2 on). The list shows a part of the results.

In this test the target is Metabotropic glutamate receptor 8 (Rattus norvegicus) (UniProt P70579). Put plainly: mGluR8 Gi/Go-coupled signaling modulation – cell-based, rat, thallium flux, HTS, primary screen (AID 488969). The conditions noted are these: HEK293 rat mGluR8, GIRK (G protein-gated inwardly rectifying potassium channel) thallium flux, FluoZin2; at 10 µM; stronger effect = higher value; submaximal glutamate (EC20) added with thallium.
Sequence of UniProt P70579 (P70579 whole entry, looked up): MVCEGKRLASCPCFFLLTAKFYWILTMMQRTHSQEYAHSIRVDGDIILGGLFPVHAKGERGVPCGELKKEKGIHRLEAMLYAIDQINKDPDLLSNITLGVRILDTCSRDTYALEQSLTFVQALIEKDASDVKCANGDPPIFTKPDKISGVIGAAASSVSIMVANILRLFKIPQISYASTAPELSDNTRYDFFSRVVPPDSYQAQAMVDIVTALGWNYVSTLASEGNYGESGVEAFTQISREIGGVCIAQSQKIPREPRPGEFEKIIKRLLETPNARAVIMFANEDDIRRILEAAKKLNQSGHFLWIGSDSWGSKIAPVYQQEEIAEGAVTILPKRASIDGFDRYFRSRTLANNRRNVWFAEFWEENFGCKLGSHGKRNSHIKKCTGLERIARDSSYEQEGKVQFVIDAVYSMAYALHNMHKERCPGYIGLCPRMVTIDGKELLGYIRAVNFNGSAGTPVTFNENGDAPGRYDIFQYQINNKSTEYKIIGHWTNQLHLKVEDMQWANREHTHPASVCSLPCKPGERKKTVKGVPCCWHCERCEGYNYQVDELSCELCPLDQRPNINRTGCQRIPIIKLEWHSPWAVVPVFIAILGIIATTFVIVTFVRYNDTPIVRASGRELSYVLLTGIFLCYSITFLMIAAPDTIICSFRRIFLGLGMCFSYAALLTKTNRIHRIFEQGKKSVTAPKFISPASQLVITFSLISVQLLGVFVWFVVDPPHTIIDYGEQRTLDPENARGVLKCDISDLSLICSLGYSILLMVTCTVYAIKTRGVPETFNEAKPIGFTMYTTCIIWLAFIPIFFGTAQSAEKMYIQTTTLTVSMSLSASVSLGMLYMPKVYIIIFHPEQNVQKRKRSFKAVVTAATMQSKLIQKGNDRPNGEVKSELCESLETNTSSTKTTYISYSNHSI
As for `O=C(c1cccc(COCC(F)(F)C(F)F)c1)N1CCN(c2ccccc2)CC1`, the z-score was -0.618.

Take `Cc1ccc2oc(-c3ccccc3)nc2c1`: the z-score is -0.29.

With `O=C(O)CCCNC(=O)c1cncc(O)c1`, the z-score was -0.271.

In turn, `CCOC(=O)C1=C(N)n2c(s/c(=C\c3cccnc3)c2=O)=C(C(=O)OC)C1c1cccnc1` (stereo not given) showed a z-score of -0.554.

`O=C(CNC1CCCCCC1)Nc1ccccc1N1CCCCC1` yielded a z-score of -0.23.

Molecule `O=C(NC(=S)Nc1ccccc1N1CCOCC1)c1ccc([N+](=O)[O-])cc1` displayed a z-score of 0.377.

Consider `CC(=O)c1cc(C)ccc1OC(=O)c1cccnc1`, for which the z-score amounted to 0.552.

As for `Cc1cccc(OCCn2cc(/C=N/NC(=O)c3ccncc3)c3ccccc32)c1`, the z-score is -1.37.

With `CN(C)CCSc1nc(-c2ccccc2)nc2c1COC(C)(C)C2`, the z-score is -0.143.

`Cc1c(NC(=O)c2noc(C(C)C)c2[N+](=O)[O-])c(=O)n(-c2ccccc2)n1C` yielded a z-score of 0.0552.

Turning to `CCN1C(=O)c2c(C)nc3ccccc3c2C1=O`, the z-score is -0.152.

`O=C(Nc1ncccn1)C1c2ccccc2Oc2ccccc21`: the z-score is -1.61.

For `C=CCC(CC=C)(NC(=O)c1cccc(C)c1)c1ccccc1`, the z-score was -0.499.

As to `CCCCNC(=S)N(C)/N=C/c1ccc(OCc2ccc(C(=O)OC)cc2)c(OC)c1`, the z-score worked out at 0.00638.

`O=[N+]([O-])c1ccc(Nc2ccc3ccccc3c2)nc1` gave a z-score of 0.0504.

With `Cc1c(N2C(=O)/C(=C3/C(=O)N(C)c4ccccc43)SC2=S)c(=O)n(-c2ccccc2)n1C`, the z-score was -0.363.

On to `CN1CCC(N2CCN(c3cccc(C(F)(F)F)c3)CC2)CC1`, for which the z-score was 0.0253.

In the case of `CC(C)(C)NC(=O)C(=O)NCc1ccncc1`, the z-score is -0.067.

Molecule `COc1cccc(/C=C(/C(=O)OCC(=O)NC2CCCCCCC2)c2ccccc2)c1` came in with a z-score of -0.323.

As to `Cc1cc(C)c(NC2=NS(=O)(=O)c3ccccc32)c(C)c1`, the z-score was -0.485.

Molecule `CCCC1CCC(C(=O)Nn2c(C)nc3ccccc3c2=O)CC1` (stereo not given) showed a z-score of -0.234.

`Cc1ccccc1NC(=O)/C=C/c1ccc([N+](=O)[O-])s1` displayed a z-score of 0.376.

On to `CC(C)(C)NC(=O)CSc1nnc(-c2ccncc2)n1Cc1ccccc1`, for which the z-score was -0.16.

In turn, `Cc1cc2c(OCC(O)CNC(C)(C)C)cccc2[nH]1` (stereo not given) showed a z-score of 0.417.

As for `CCOC(=O)N1CCN(C(=O)c2ccccc2NC(=O)c2ccc(OC)cc2)CC1`, the z-score was found to be 0.851.

For `COc1ccc(/C=N/n2c(-c3n[nH]c4c3CCC4)n[nH]c2=S)cc1OC`, the z-score was -0.569.

As to `O=C(OCn1nnc2ccccc2c1=O)c1cc(-c2ccccc2Cl)nc2ccccc12`, the z-score worked out at 0.0512.

`N#CC(C(=O)C12CC3CC(CC(C3)C1)C2)c1nc2ccccc2[nH]1` (stereo not given) returned a z-score of -0.609.

With `Cc1ccc(CNC(=O)Cc2ccc(-c3ccccc3)cc2)cc1`, the z-score is 0.703.

With `O=C(COC(=O)Cc1ccccc1F)Nc1cc(S(=O)(=O)N2CCOCC2)ccc1N1CCCC1`, the z-score was -0.136.
